According to the supplement of paper PMC10670038:
± gives the standard deviation of the averaged measurements. In all, about 2,000 compounds were measured (“relative cell viability vs DMSO, compound alone”: median about 1.1, lowest 2% from about 0.29 on). This is one part of the list.

These molecules were tested on TE10 (assay: relative cell viability vs DMSO, compound alone (fraction); TE10 is an esophageal squamous carcinoma line; higher = less cytotoxic). Details: 2 µM; 48 h.
Protocol: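 TE10 ESCC cells (1,000/well, 384-well plates) were treated with Selleck bioactive library compounds at 2 uM alone for 48 h. Viability was read by CellTiter-Glo and expressed relative to DMSO wells. Two technical replicates (A, B).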

Structure (SMILES)	relative cell viability
O=C(Nc1ccccc1)c1cc([N+](=O)[O-])ccc1Cl	1.12 ± 0.038
C=C1C(=O)O[C@@H]2/C=C(\C)CC/C=C(\C)CC[C@@H]12 [Costunolide]	1.03 ± 0.07
CO/N=C(\C(=O)N[C@@H]1C(=O)N2C(C(=O)OCOC(=O)C(C)(C)C)=C(/C=C\c3scnc3C)CS[C@H]12)c1csc(N)n1 [Cefditoren Pivoxil]	0.991 ± 0.099
Cn1cnc(-c2cc3nccc(Oc4ccc(NC(=S)NC(=O)Cc5ccccc5)cc4F)c3s2)c1	1.11 ± 0.033
O=C(CCc1ccc(O)cc1)c1c(O)cc(O)cc1O[C@@H]1O[C@H](CO)[C@@H](O)[C@H](O)[C@H]1O [Phlorizin]	1.16 ± 0.074
C=C[C@]1(C)C[C@@H](OC(=O)CS[C@@H]2C[C@H]3CC[C@@H](C2)N3C)[C@]2(C)[C@H](C)CC[C@]3(CCC(=O)[C@H]32)[C@@H](C)[C@@H]1O [Retapamulin]	1.29 ± 0.028
CN(N=O)C(=O)NC1C(O)OC(CO)C(O)C1O (stereo not given) [Streptozotocin (STZ)]	1.086 ± 0.0041
Oc1ncnc2[nH]ncc12 [Allopurinol]	1.05 ± 0.072
CN1CCN(Cc2ccc(NC(=O)Cc3ccc(Oc4cc(NC(=O)C5CC5)ncn4)cc3)cc2C(F)(F)F)CC1	0.7225 ± 0.0028
C[C@]12CCC(=O)C=C1CC[C@@H]1[C@@H]2[C@@H](O)C[C@@]2(C)[C@H]1CC[C@]2(O)C(=O)CO [Hydrocortisone]	1.03 ± 0.013
O=C(/C=C/c1ccc2ccccc2n1)c1ccncc1	0.685 ± 0.16
CC(=O)Nc1ccccc1 [Acetanilide]	0.976 ± 0.25
Cc1cc(C(N)=O)ccc1-n1c(CCC(=O)O)ccc1-c1ccc(-n2ccnc2)cc1	1.07 ± 0.043
CC(C(=O)O)c1ccc2c(c1)Cc1cccnc1O2 (stereo not given) [Pranoprofen]	1.14 ± 0.06
O=C(N/N=C/c1cc(O)c(O)cc1O)c1cc2ccccc2cc1O [Dyngo-4a]	0.909 ± 0.21
Clc1ccc(NN=C(c2ccccc2)c2ccccn2)nc1	0.617 ± 0.047
C[N+]1(C)[C@@H]2C[C@@H](OC(=O)C(O)(c3cccs3)c3cccs3)C[C@H]1[C@@H]1O[C@@H]12 [Tiotropium Bromide hydrate]	0.893 ± 0.034
C[N+]1(C)[C@@H]2CC[C@H]1C[C@@H](OC(=O)C(O)c1ccccc1)C2 (stereo not given in full) [Homatropine Methylbromide]	1.15 ± 0.048
COC(=O)C1=C(C)NC(C)=C(C(=O)OCCN2CCN(C(c3ccccc3)c3ccccc3)CC2)C1c1cccc([N+](=O)[O-])c1 (stereo not given) [Manidipine]	0.884 ± 0.083
COC(=O)C1=C(C)NC(C)=C(C(=O)OCCN2CCN(C(c3ccccc3)c3ccccc3)CC2)C1c1cccc([N+](=O)[O-])c1 (stereo not given) [Manidipine 2HCl]	1.109 ± 0.0084
